24 compounds from PubChem BioAssay AID220 (DTP/NCI, 2004) can be followed below.

Structures are written as SMILES. Results filed as inconclusive are left out. Some entries of the source have several records that differ or are many. They are shown here; other results are not. An entry can have further records. Results that share an entry are repeated measurements across runs, samples, wells, individuals or studies.

This test has as its system CD8F1 mice, subcutaneous mammary adenocarcinoma, T/C%. The experiment in a line: NCI In Vivo Anticancer Drug Screen. Data for tumor model Mammary Adenocarcinoma CD8F1 (subcutaneous) in CD8F1. The following applies: higher = larger tumour. Summed up: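 Tumor-bearing mice, transplantable model; readout survival or tumor size; value = treated (T) / vehicle control (C).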

[1] abbreviates: endpoint: median tumor weight (est.), dose: 50.0 mg/kg/injection, schedule: Q07DX005 (ip), vehicle: saline.
Setting [2] is: endpoint: median tumor weight (est.), dose: 100.0 mg/kg/injection, schedule: Q07DX005 (ip), vehicle: saline.
Where [3] appears, read: endpoint: median tumor weight (est.), dose: 50.0 mg/kg/injection, schedule: Q07DX005 (ip), vehicle: saline with Tween-80.
Setting [4] is: endpoint: median tumor weight (est.), dose: 100.0 mg/kg/injection, schedule: Q07DX005 (ip), vehicle: saline with Tween-80.
Where [5] appears, read: endpoint: median tumor weight (est.), dose: 25.0 mg/kg/injection, schedule: Q07DX005 (ip), vehicle: saline with Tween-80.
Where [6] appears, read: endpoint: median tumor weight (est.), dose: 12.5 mg/kg/injection, schedule: Q07DX005 (ip), vehicle: Klucel (hydroxypropylcellulose) (HPC).
Where [7] appears, read: endpoint: median tumor weight (est.), dose: 25.0 mg/kg/injection, schedule: Q07DX005 (ip), vehicle: Klucel (hydroxypropylcellulose) (HPC).
Setting [8] is: endpoint: median tumor weight (est.), dose: 50.0 mg/kg/injection, schedule: Q07DX005 (ip), vehicle: Klucel (hydroxypropylcellulose) (HPC).
Where [9] appears, read: endpoint: median tumor weight (est.), dose: 100.0 mg/kg/injection, schedule: Q07DX005 (ip), vehicle: Klucel (hydroxypropylcellulose) (HPC).
Where [10] appears, read: endpoint: median tumor weight (est.), dose: 400.0 mg/kg/injection, schedule: Q07DX005 (ip), vehicle: saline with Tween-80.

With `CCOC(=O)C(CC(C)C)NC(=O)C(Cc1ccc(N(CCCl)CCCl)cc1)NC(C)=O` (stereo not given), the T/C (endpoint: median tumor weight (est.), dose: 16.0 mg/kg/injection, schedule: Q07DX005 (ip), vehicle: saline with Tween-80) is 64 % of control and 91 % of control.

Take `N=[N+]=CC(=O)OCC(N)C(=O)O` (stereo not given): the T/C reads like this: (endpoint: median tumor weight (est.), dose: 12.5 mg/kg/injection, schedule: Q07DX005 (ip), vehicle: water) 38 % of control and 105 % of control; (endpoint: median tumor weight (est.), dose: 25.0 mg/kg/injection, schedule: Q07DX005 (ip), vehicle: water) 26 % of control and 92 % of control.

As to `O=[N+]([O-])O.[Ga]`, the T/C reads like this: (endpoint: median tumor weight (est.), dose: 50.0 mg/kg/injection, schedule: Q04DX005 (ip), vehicle: saline) 107 % of control and 175 % of control; under setting [1], 89 % of control and 184 % of control; under setting [2], 63 % of control and 98 % of control.

Regarding `CCc1ccccc1N1CCN(C(=O)c2cc(OC)c(OC)c(OC)c2)CC1`, the T/C is 29 % of control and 186 % of control (endpoint: median tumor weight (est.), dose: 12.5 mg/kg/injection, schedule: Q04DX005 (ip), vehicle: Klucel (hydroxypropylcellulose) (HPC)); 29 % of control and 167 % of control (endpoint: median tumor weight (est.), dose: 25.0 mg/kg/injection, schedule: Q04DX005 (ip), vehicle: Klucel (hydroxypropylcellulose) (HPC)); 117 % of control and 195 % of control (endpoint: median tumor weight (est.), dose: 25.0 mg/kg/injection, schedule: Q07DX004 (ip), vehicle: Klucel (hydroxypropylcellulose) (HPC)); 93 % of control and 124 % of control (endpoint: median tumor weight (est.), dose: 50.0 mg/kg/injection, schedule: Q07DX004 (ip), vehicle: Klucel (hydroxypropylcellulose) (HPC)); 51 % of control and 117 % of control (endpoint: median tumor weight (est.), dose: 200.0 mg/kg/injection, schedule: Q04DX005 (ip), vehicle: Klucel (hydroxypropylcellulose) (HPC)); 52 % of control and 88 % of control (endpoint: median tumor weight (est.), dose: 200.0 mg/kg/injection, schedule: Q07DX004 (ip), vehicle: Klucel (hydroxypropylcellulose) (HPC)). Also, under “endpoint: median tumor weight (est.), dose: 400.0 mg/kg/injection, schedule: Q07DX004 (ip), vehicle: Klucel (hydroxypropylcellulose) (HPC)”, the T/C is 37 % of control and 81 % of control.

In the case of `CS(=O)(=O)[O-].CS(=O)(=O)[O-].NC1CCCCC1N.[Pt+4]` (stereo not given), the T/C is 30 % of control and 99 % of control (endpoint: median tumor weight (est.), dose: 0.62 mg/kg/injection, schedule: Q07DX005 (ip), vehicle: dextrose); 32 % of control, 46 % of control, 93 % of control (endpoint: median tumor weight (est.), dose: 1.25 mg/kg/injection, schedule: Q07DX005 (ip), vehicle: dextrose); 14 % of control and 49 % of control (endpoint: median tumor weight (est.), dose: 2.5 mg/kg/injection, schedule: Q07DX005 (ip), vehicle: dextrose).

As to `COc1cc(C(C)(C)C)cc(OC)c1C(O)(c1c(OC)cc(C(C)(C)C)cc1OC)c1c(OC)cc(C(C)(C)C)cc1OC`, the T/C (endpoint: median tumor weight change, dose: 125.0 mg/kg/injection, schedule: Q01DX001 (ip), vehicle: saline with Tween-80) is 65 % of control and 95 % of control.

Consider `N#Cc1nc(C#N)c(Sc2ccccc2)c(Sc2ccccc2)c1Sc1ccccc1`, for which the T/C by setting is: under setting [3], 61 % of control and 112 % of control; under setting [4], 114 % of control and 152 % of control; (endpoint: median tumor weight (est.), dose: 200.0 mg/kg/injection, schedule: Q07DX005 (ip), vehicle: saline with Tween-80) 54 % of control and 96 % of control.

As for `COc1cccc2c1C(=O)c1c(O)c3c(c(O)c1C2=O)CC(O)(/C(C)=N/NC(=O)CCC(=O)N/N=C(\C)C1(O)Cc2c(O)c4c(c(O)c2C(OC2CC(N)C(O)C(C)O2)C1)C(=O)c1c(OC)cccc1C4=O)CC3OC1CC(N)C(O)C(C)O1` (stereo not given), the T/C (endpoint: median tumor weight (est.), dose: 3.0 mg/kg/injection, schedule: Q07DX005 (ip), vehicle: water) was 42 % of control and 77 % of control.

Consider `COc1ccc([I+]c2cccc(Cl)c2)cc1Cl`, for which the T/C reads like this: (endpoint: median tumor weight (est.), dose: 6.25 mg/kg/injection, schedule: Q07DX005 (ip), vehicle: saline with Tween-80) 27 % of control and 200 % of control; under setting [5], 49 % of control and 152 % of control.

As to `COc1ccc(C(N)=O)cc1N=NN(C)C`, the T/C under setting [6] is 42 % of control and 95 % of control; the T/C under setting [7] was 65 % of control and 158 % of control; the T/C under setting [8] was 67 % of control and 103 % of control; the T/C under setting [9] was 16 % of control and 59 % of control.

Regarding `Ic1ncnc2c1ncn2C1CCCO1` (stereo not given), the T/C reads like this: under setting [6], 46 % of control and 78 % of control; under setting [8], 31 % of control and 113 % of control; under setting [9], 22 % of control and 61 % of control.

On to `Nc1nc(F)nc2c1ncn2C1OC(COP(=O)(O)O)C(O)C1O` (stereo not given), for which the T/C is, setting by setting: under setting [1], 79 % of control and 105 % of control; (endpoint: median tumor weight (est.), dose: 200.0 mg/kg/injection, schedule: Q07DX005 (ip), vehicle: saline) 50 % of control and 82 % of control.

`CC[As](=O)(O)CC`: under setting [2], the T/C is recorded as 66 % of control, 71 % of control, 191 % of control.

`CC1=CC(=Nc2ccc(N(CCCl)CCCl)cc2)C=C(C)C1=O`: the T/C under setting [6] is reported as 44 % of control, 45 % of control, 74 % of control and the T/C under setting [7] is reported as 31 % of control, 44 % of control, 63 % of control.

Turning to `CC(=O)OCC1OC(OC(C)=O)C(NC(=O)N(CCCl)N=O)C(OC(C)=O)C1OC(C)=O` (stereo not given), the T/C is, setting by setting: (endpoint: median tumor weight (est.), dose: 6.0 mg/kg/injection, schedule: Q07DX005 (ip), vehicle: Klucel (hydroxypropylcellulose) (HPC)) 19 % of control, 33 % of control, 45 % of control; (endpoint: median tumor weight (est.), dose: 12.0 mg/kg/injection, schedule: Q07DX005 (ip), vehicle: Klucel (hydroxypropylcellulose) (HPC)) 18 % of control, 50 % of control, 62 % of control.

Turning to `COc1cc(NCc2ccc3nc(N)nc(N)c3c2C)cc(OC)c1OC`, the T/C (endpoint: median tumor weight (est.), dose: 15.0 mg/kg/injection, schedule: Q07DX005 (ip), vehicle: sodium bicarbonate) is 59 % of control and 110 % of control; the T/C (endpoint: median tumor weight (est.), dose: 30.0 mg/kg/injection, schedule: Q07DX005 (ip), vehicle: sodium bicarbonate) is 67 % of control, 85 % of control, 95 % of control; the T/C (endpoint: median tumor weight (est.), dose: 60.0 mg/kg/injection, schedule: Q07DX005 (ip), vehicle: sodium bicarbonate) is 20 % of control, 55 % of control, 59 % of control.

As for `COC(=O)C(Cl)(Cl)N=Nc1c(Cl)cc(Cl)c(C)c1Cl`, the T/C was 47 % of control and 213 % of control (endpoint: median tumor weight (est.), dose: 12.5 mg/kg/injection, schedule: Q07DX005 (ip), vehicle: saline with Tween-80); 100 % of control and 154 % of control under setting [3]; 66 % of control and 121 % of control under setting [10].

For the compound `OCCOCC(F)(F)F`, the T/C runs as follows: under setting [4], 60 % of control and 104 % of control; under setting [10], 27 % of control and 90 % of control.

On to `CNC(=O)c1cccc2c(Nc3ccc(NS(C)(=O)=O)cc3OC)c3cccc(C)c3nc12`, for which the T/C (endpoint: median tumor weight change, dose: 15.0 mg/kg/injection, schedule: Q01DX001 (ip), vehicle: water) was 38 % of control and 76 % of control; the T/C (endpoint: median tumor weight change, dose: 30.0 mg/kg/injection, schedule: Q01DX001 (ip), vehicle: water) is 12 % of control and 59 % of control.

Turning to `CCCCCCCC(=O)[O][Hg][CH2]C1COC([CH2][Hg][O]C(=O)CCCCCCC)CO1` (stereo not given), the T/C under setting [5] was 36 % of control and 100 % of control.

For `CN(C)CC(Cl)CCl` (stereo not given), the T/C was 120 % of control and 165 % of control under setting [1]; 86 % of control and 112 % of control under setting [2].

For the compound `CCOC(=O)NC1=C(N2CC2)C(=O)C(NC(=O)OCC)=C(N2CC2)C1=O`, the T/C (endpoint: median tumor weight change, dose: 5.0 mg/kg/injection, schedule: Q01DX001 (ip), vehicle: saline with Tween-80) was 51 % of control and 120 % of control.

Take `C=C(NC(=O)C(=C)NC(=O)c1csc(C2=NC3c4csc(n4)C4NC(=O)c5csc(n5)C(C(C)(O)C(C)O)NC(=O)C5CSC(=N5)/C(=C/C)NC(=O)C(C(C)O)NC(=O)c5csc(n5)C3(CC2)NC(=O)C(C)NC(=O)C(=C)NC(=O)C(C)NC(=O)C(C(C)CC)NC2C=Cc3c(C(C)O)cc(nc3C2O)C(=O)OC4C)n1)C(N)=O` (stereo not given): the T/C reads like this: under setting [7], 68 % of control and 96 % of control; under setting [8], 74 % of control and 104 % of control; under setting [9], 57 % of control and 108 % of control.

As to `OCCN1CCN(CCCN2c3ccccc3Sc3ccc(C(F)(F)F)cc32)CC1`, the T/C (endpoint: median tumor weight (est.), dose: 25.0 mg/kg/injection, schedule: Q07DX005 (ip), vehicle: saline) was 43 % of control and 82 % of control.
